Experimental data from the supplement of paper PMC4967469.

compound: CCn1cc(-c2ccnc3[nH]c(-c4cccc(CN(C)C)c4)cc23)c(-c2ccc(NC(=O)N(C)C)cc2)n1 [GSK1070916]; experiment: Viability of human cancer cell lines after 72 h of drug (GDSC screen); settings: top dose inferred
Method: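 Human cancer cell lines in 384-well plates, medium with 10% serum, drug for 72 h over a 256-fold dose range (nine 2-fold or five 4-fold steps up to the top dose). Adherent lines were fixed and stained with the nucleic acid dye Syto60, suspension lines read with resazurin; signal relative to control wells, capped at 0 and 100%. One two-parameter sigmoid per drug and line, fitted in a mixed model over all curves with the slope shared within a line.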

Row | Cell Line | AUC | IC50 [µM]
1 | NCI-H810 (large cell lung carcinoma, adherent, top dose 2.56 µM) | 0.753 | 0.823
2 | NCI-H838 (lung adenocarcinoma, adherent, top dose 2.56 µM) | 0.985 | > 2.56
3 | NCI-H841 (small cell lung carcinoma, adherent, top dose 2.56 µM) | 0.971 | > 2.56
4 | NCI-H847 (small cell lung carcinoma, adherent, top dose 2.56 µM) | 0.044 | < 0.01
5 | NCI-H1092 (small cell lung carcinoma, suspension, top dose 2.56 µM) | 0.93 | > 2.56
6 | NCI-H1155 (large cell lung carcinoma, suspension, top dose 2.56 µM) | 0.968 | > 2.56
7 | NCI-H1299 (large cell lung carcinoma, adherent, top dose 2.56 µM) | 0.928 | > 2.56
8 | NCI-H1304 (small cell lung carcinoma, suspension, top dose 2.56 µM) | 0.625 | 0.364
9 | NCI-H1355 (lung adenocarcinoma, adherent, top dose 2.56 µM) | 0.972 | > 2.56
10 | NCI-H1395 (lung adenocarcinoma, adherent, top dose 2.56 µM) | 0.98 | > 2.56
11 | NCI-H1417 (small cell lung carcinoma, suspension, top dose 2.56 µM) | 0.783 | 1.3
12 | NCI-H1435 (lung adenocarcinoma, semi-adherent, top dose 2.56 µM) | 0.986 | > 2.56
13 | NCI-H1436 (small cell lung carcinoma, suspension, top dose 2.56 µM) | 0.838 | 2.1
14 | NCI-H1437 (lung adenocarcinoma, adherent, top dose 2.56 µM) | 0.954 | > 2.56
15 | NCI-H1563 (lung adenocarcinoma, adherent, top dose 2.56 µM) | 0.961 | > 2.56
16 | NCI-H1568 (lung adenocarcinoma, adherent, top dose 2.56 µM) | 0.96 | > 2.56
17 | NCI-H1573 (lung adenocarcinoma, adherent, top dose 2.56 µM) | 0.99 | > 2.56
18 | NCI-H1581 (large cell lung carcinoma, semi-adherent, top dose 2.56 µM) | 0.763 | 0.851
19 | NCI-H1623 (lung adenocarcinoma, adherent, top dose 2.56 µM) | 0.985 | > 2.56
20 | NCI-H1648 (lung adenocarcinoma, adherent, top dose 2.56 µM) | 0.973 | > 2.56
21 | NCI-H1651 (lung adenocarcinoma, adherent, top dose 2.56 µM) | 0.987 | > 2.56
22 | NCI-H1666 (lung adenocarcinoma, semi-adherent, top dose 2.56 µM) | 0.953 | > 2.56
23 | NCI-H1688 (small cell lung carcinoma, adherent, top dose 2.56 µM) | 0.978 | > 2.56
24 | NCI-H1693 (lung adenocarcinoma, adherent, top dose 2.56 µM) | 0.953 | > 2.56

Row | Cell Line | AUC | IC50 [µM]
25 | NCI-H1694 (small cell lung carcinoma, suspension, top dose 2.56 µM) | 0.872 | 2.43
26 | NCI-H1703 (lung adenocarcinoma, adherent, top dose 2.56 µM) | 0.897 | > 2.56
27 | NCI-H1734 (lung adenocarcinoma, adherent, top dose 2.56 µM) | 0.898 | > 2.56
28 | NCI-H1755 (lung adenocarcinoma, adherent, top dose 2.56 µM) | 0.853 | 2.52
29 | NCI-H1781 (lung adenocarcinoma, adherent, top dose 2.56 µM) | 0.971 | > 2.56
30 | NCI-H1792 (lung adenocarcinoma, adherent, top dose 2.56 µM) | 0.914 | > 2.56
31 | NCI-H1793 (lung adenocarcinoma, adherent, top dose 2.56 µM) | 0.982 | > 2.56
32 | NCI-H1836 (small cell lung carcinoma, suspension, top dose 2.56 µM) | 0.932 | > 2.56
33 | NCI-H1838 (lung adenocarcinoma, adherent, top dose 2.56 µM) | 0.979 | > 2.56
34 | NCI-H1869 (lung squamous cell carcinoma, adherent, top dose 2.56 µM) | 0.967 | > 2.56
35 | NCI-H1876 (small cell lung carcinoma, adherent, top dose 2.56 µM) | 0.832 | 1.67
36 | NCI-H1915 (large cell lung carcinoma, adherent, top dose 2.56 µM) | 0.931 | > 2.56
37 | NCI-H1944 (lung adenocarcinoma, adherent, top dose 2.56 µM) | 0.861 | 2.41
38 | NCI-H1975 (lung adenocarcinoma, adherent, top dose 2.56 µM) | 0.906 | > 2.56
39 | NCI-H1993 (lung adenocarcinoma, adherent, top dose 2.56 µM) | 0.968 | > 2.56
40 | NCI-H2009 (lung adenocarcinoma, adherent, top dose 2.56 µM) | 0.987 | > 2.56
41 | NCI-H2023 (lung adenocarcinoma, adherent, top dose 2.56 µM) | 0.964 | > 2.56
42 | NCI-H2029 (small cell lung carcinoma, adherent, top dose 2.56 µM) | 0.991 | > 2.56
43 | NCI-H2030 (lung adenocarcinoma, adherent, top dose 2.56 µM) | 0.912 | > 2.56
44 | NCI-H2052 (mesothelioma, adherent, top dose 2.56 µM) | 0.968 | > 2.56
45 | NCI-H2081 (small cell lung carcinoma, suspension, top dose 2.56 µM) | 0.278 | 0.0359
46 | NCI-H2085 (lung adenocarcinoma, adherent, top dose 2.56 µM) | 0.934 | > 2.56
47 | NCI-H2087 (lung adenocarcinoma, semi-adherent, top dose 2.56 µM) | 0.856 | 2.31
48 | NCI-H2110 (non-small cell lung carcinoma, adherent, top dose 2.56 µM) | 0.967 | > 2.56

Row | Cell Line | AUC | IC50 [µM]
49 | NCI-H2122 (lung adenocarcinoma, adherent, top dose 2.56 µM) | 0.977 | > 2.56
50 | NCI-H2135 (non-small cell lung carcinoma, adherent, top dose 2.56 µM) | 0.978 | > 2.56
51 | NCI-H2141 (small cell lung carcinoma, suspension, top dose 2.56 µM) | 0.915 | > 2.56
52 | NCI-H2170 (lung squamous cell carcinoma, adherent, top dose 2.56 µM) | 0.939 | > 2.56
53 | NCI-H2171 (small cell lung carcinoma, suspension, top dose 2.56 µM) | 0.041 | < 0.01
54 | NCI-H2172 (non-small cell lung carcinoma, adherent, top dose 2.56 µM) | 0.977 | > 2.56
55 | NCI-H2196 (small cell lung carcinoma, adherent, top dose 2.56 µM) | 0.97 | > 2.56
56 | NCI-H2227 (small cell lung carcinoma, semi-adherent, top dose 2.56 µM) | 0.161 | 0.0123
57 | NCI-H2228 (lung adenocarcinoma, adherent, top dose 2.56 µM) | 0.911 | > 2.56
58 | NCI-H2291 (lung adenocarcinoma, adherent, top dose 2.56 µM) | 0.979 | > 2.56
59 | NCI-H2342 (lung adenocarcinoma, adherent, top dose 2.56 µM) | 0.983 | > 2.56
60 | NCI-H2347 (lung adenocarcinoma, adherent, top dose 2.56 µM) | 0.918 | > 2.56
61 | NCI-H2405 (lung adenocarcinoma, adherent, top dose 2.56 µM) | 0.951 | > 2.56
62 | NCI-H2444 (non-small cell lung carcinoma, adherent, top dose 2.56 µM) | 0.986 | > 2.56
63 | NCI-H2452 (mesothelioma, adherent, top dose 2.56 µM) | 0.984 | > 2.56
64 | NCI-H3122 (lung adenocarcinoma, adherent, top dose 2.56 µM) | 0.926 | > 2.56
65 | NCI-SNU-1 (stomach, suspension, top dose 2.56 µM) | 0.916 | > 2.56
66 | NCI-SNU-5 (stomach, suspension, top dose 2.56 µM) | 0.989 | > 2.56
67 | NCI-SNU-16 (stomach, suspension, top dose 2.56 µM) | 0.925 | > 2.56
68 | NEC8 (testis, adherent, top dose 2.56 µM) | 0.955 | > 2.56
69 | NH-12 (neuroblastoma, adherent, top dose 2.56 µM) | 0.622 | 0.363
70 | NK-92MI (lymphoid neoplasm, suspension, top dose 2.56 µM) | 0.914 | > 2.56

IC50 is the fitted dose that halves viability relative to control wells, and lower means more sensitive; fits outside the tested doses are given as limits. AUC sums up the same curve from the lowest dose to the 256-fold higher top dose: 1 means no effect, lower means more sensitive. A top dose marked as inferred comes from the curve model; the source does not state it.
